Measurements as given in the supplement of paper PMC8728848.
This is one part of the list.

Columns and labels:
Test in all cases: glycan array binding signal (z-score within array); higher = stronger binding
Settings in all cases: glycan notation: IUPAC condensed, linker removed
[1] = molecular target: Man(a1-3)[Man(a1-6)]Man(a1-6)[Man(a1-2)Man(a1-3)]Man(b1-4)GlcNAc(b1-4)GlcNAc
How it was run: (§1)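 The binding signal is a Z-score computed within each array. Data were drawn from 3228 arrays in the Consortium for Functional Glycomics database, restricted to those with a known protein sequence. Scores were averaged over arrays of the same protein sequence at different concentrations or buffers, and over linkers, and negative values can be taken as non-binding.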

[2] = molecular target: Man(a1-3)[Man(a1-6)]Man(a1-6)[Man(a1-3)]Man(b1-4)GlcNAc(b1-4)GlcNAc
How it was run: as §1

[3] = molecular target: Man(a1-3)[Man(a1-6)]Man(b1-4)GlcNAc(b1-4)GlcNAc
How it was run: as §1

[4] = molecular target: Man(b1-4)GlcNAc
How it was run: as §1

[5] = molecular target: Neu5Ac(a2-3)Gal
How it was run: as §1

[6] = molecular target: Neu5Ac(a2-3)Gal(b1-3)GalNAc
How it was run: as §1

[7] = molecular target: Neu5Ac(a2-3)Gal(b1-3)GalNAc(b1-3)Gal(a1-4)Gal(b1-4)Glc
How it was run: as §1

[8] = molecular target: Neu5Ac(a2-3)Gal(b1-3)GalNAc(b1-3)Gal(b1-4)GlcNAc
How it was run: as §1

[9] = molecular target: Neu5Ac(a2-3)Gal(b1-3)GalNAc(b1-4)[Neu5Ac(a2-3)]Gal(b1-4)Glc
How it was run: as §1

[10] = molecular target: Neu5Ac(a2-3)Gal(b1-3)GalNAc6S
How it was run: as §1

[11] = molecular target: Neu5Ac(a2-3)Gal(b1-3)GlcNAc
How it was run: as §1

[12] = molecular target: Neu5Ac(a2-3)Gal(b1-3)GlcNAc6S
How it was run: as §1

[13] = molecular target: Neu5Ac(a2-3)Gal(b1-3)[Fuc(a1-4)]GlcNAc
How it was run: as §1

[14] = molecular target: Neu5Ac(a2-3)Gal(b1-3)[Fuc(a1-4)]GlcNAc(b1-3)Gal(b1-4)[Fuc(a1-3)]GlcNAc
How it was run: as §1

[15] = molecular target: Neu5Ac(a2-3)Gal(b1-3)[Neu5Ac(a2-3)Gal(b1-4)]GlcNAc
How it was run: as §1

[16] = molecular target: Neu5Ac(a2-3)Gal(b1-3)[Neu5Ac(a2-6)]GalNAc
How it was run: as §1

[17] = molecular target: Neu5Ac(a2-3)Gal(b1-4)Glc
How it was run: as §1

[18] = molecular target: Neu5Ac(a2-3)Gal(b1-4)GlcNAc
How it was run: as §1

[19] = molecular target: Neu5Ac(a2-3)Gal(b1-4)GlcNAc(b1-2)Man(a1-3)[Neu5Ac(a2-3)Gal(b1-4)GlcNAc(b1-2)Man(a1-6)]Man(b1-4)GlcNAc(b1-4)GlcNAc
How it was run: as §1

[20] = molecular target: Neu5Ac(a2-3)Gal(b1-4)GlcNAc(b1-3)Gal(b1-4)GlcNAc
How it was run: as §1

[21] = molecular target: Neu5Ac(a2-3)Gal(b1-4)GlcNAc(b1-3)Gal(b1-4)GlcNAc(b1-3)Gal(b1-4)GlcNAc
How it was run: as §1

[22] = molecular target: Neu5Ac(a2-3)Gal(b1-4)GlcNAc(b1-3)Gal(b1-4)[Fuc(a1-3)]GlcNAc
How it was run: as §1

[23] = molecular target: Neu5Ac(a2-3)Gal(b1-4)GlcNAc6S
How it was run: as §1

[24] = molecular target: Neu5Ac(a2-3)Gal(b1-4)[Fuc(a1-3)]GlcNAc
How it was run: as §1

[25] = molecular target: Neu5Ac(a2-3)Gal(b1-4)[Fuc(a1-3)]GlcNAc(b1-3)Gal
How it was run: as §1

[26] = molecular target: Neu5Ac(a2-3)Gal(b1-4)[Fuc(a1-3)]GlcNAc(b1-3)Gal(b1-4)GlcNAc
How it was run: as §1

[27] = molecular target: Neu5Ac(a2-3)Gal(b1-4)[Fuc(a1-3)]GlcNAc(b1-3)Gal(b1-4)[Fuc(a1-3)]GlcNAc(b1-3)Gal(b1-4)[Fuc(a1-3)]GlcNAc
How it was run: as §1

[28] = molecular target: Neu5Ac(a2-3)Gal(b1-4)[Fuc(a1-3)]GlcNAc6S
How it was run: as §1

[29] = molecular target: Neu5Ac(a2-3)Gal6S(b1-4)GlcNAc
How it was run: as §1

[30] = molecular target: Neu5Ac(a2-3)Gal6S(b1-4)[Fuc(a1-3)]GlcNAc
How it was run: as §1

[31] = molecular target: Neu5Ac(a2-3)GalNAc
How it was run: as §1

[32] = molecular target: Neu5Ac(a2-3)GalNAc(b1-4)GlcNAc
How it was run: as §1

[33] = molecular target: Neu5Ac(a2-3)[GalNAc(b1-4)]Gal(b1-4)Glc
How it was run: as §1

[34] = molecular target: Neu5Ac(a2-3)[GalNAc(b1-4)]Gal(b1-4)GlcNAc
How it was run: as §1

[35] = molecular target: Neu5Ac(a2-3)[Neu5Ac(a2-6)]GalNAc
How it was run: as §1

[36] = molecular target: Neu5Ac(a2-6)Gal
How it was run: as §1

[37] = molecular target: Neu5Ac(a2-6)Gal(b1-4)Glc
How it was run: as §1

[38] = molecular target: Neu5Ac(a2-6)Gal(b1-4)GlcNAc
How it was run: as §1

[39] = molecular target: Neu5Ac(a2-6)Gal(b1-4)GlcNAc(b1-3)Gal(b1-4)GlcNAc
How it was run: as §1

[40] = molecular target: Neu5Ac(a2-6)Gal(b1-4)GlcNAc(b1-3)Gal(b1-4)[Fuc(a1-3)]GlcNAc(b1-3)Gal(b1-4)[Fuc(a1-3)]GlcNAc
How it was run: as §1

[41] = molecular target: Neu5Ac(a2-6)Gal(b1-4)GlcNAc6S
How it was run: as §1

[42] = molecular target: Neu5Ac(a2-6)GalNAc
How it was run: as §1

[43] = molecular target: Neu5Ac(a2-6)GalNAc(b1-4)GlcNAc
How it was run: as §1

[44] = molecular target: Neu5Ac(a2-8)Neu5Ac
How it was run: as §1

[45] = molecular target: Neu5Ac(a2-8)Neu5Ac(a2-3)Gal(b1-4)Glc
How it was run: as §1

B1: MPA (Maclura pomifera) (protein)
chain: GVTFDDGAYTGIREINFEYNSETAIGGLRVTYDLNGMPFVAEDHKSFITGFKPVKISLEFPSEYIVEVSGYVGKVEGYTVIRSLTFKTNKQTYGPYGVTNGTPFSLPIENGLIVGFKGSIGYWLDYFSIYLSLNGPNGKSQSIIVGPWGDRVTN
[1]
  glycan array binding signal (z-score): -0.244
[2]
  glycan array binding signal (z-score): -0.243
[3]
  glycan array binding signal (z-score): -0.242
[4]
  glycan array binding signal (z-score): -0.24
[5]
  glycan array binding signal (z-score): -0.243
[6]
  glycan array binding signal (z-score): 4.28
[7]
  glycan array binding signal (z-score): -0.244
[8]
  glycan array binding signal (z-score): -0.247
[9]
  glycan array binding signal (z-score): -0.246
[10]
  glycan array binding signal (z-score): -0.237
[11]
  glycan array binding signal (z-score): -0.242
[12]
  glycan array binding signal (z-score): -0.236
[13]
  glycan array binding signal (z-score): -0.205
[14]
  glycan array binding signal (z-score): -0.216
[15]
  glycan array binding signal (z-score): -0.245
[16]
  glycan array binding signal (z-score): -0.245
[17]
  glycan array binding signal (z-score): -0.245
[18]
  glycan array binding signal (z-score): -0.247
[19]
  glycan array binding signal (z-score): -0.245
[20]
  glycan array binding signal (z-score): -0.247
[21]
  glycan array binding signal (z-score): -0.25
[22]
  glycan array binding signal (z-score): -0.246
[23]
  glycan array binding signal (z-score): -0.248
[24]
  glycan array binding signal (z-score): -0.217
[25]
  glycan array binding signal (z-score): -0.217
[26]
  glycan array binding signal (z-score): -0.219
[27]
  glycan array binding signal (z-score): -0.215
[28]
  glycan array binding signal (z-score): -0.193
[29]
  glycan array binding signal (z-score): -0.166
[30]
  glycan array binding signal (z-score): -0.2
[31]
  glycan array binding signal (z-score): 0.805
[32]
  glycan array binding signal (z-score): -0.241
[33]
  glycan array binding signal (z-score): -0.246
[34]
  glycan array binding signal (z-score): -0.247
[35]
  glycan array binding signal (z-score): -0.248
[36]
  glycan array binding signal (z-score): -0.245
[37]
  glycan array binding signal (z-score): -0.239
[38]
  glycan array binding signal (z-score): -0.245
[39]
  glycan array binding signal (z-score): -0.246
[40]
  glycan array binding signal (z-score): -0.231
[41]
  glycan array binding signal (z-score): -0.245
[42]
  glycan array binding signal (z-score): -0.243
[43]
  glycan array binding signal (z-score): -0.243
[44]
  glycan array binding signal (z-score): -0.237
[45]
  glycan array binding signal (z-score): -0.234
